Source: patent US9018256B2, “Feed additive for animals of P-thymol, salt derivative or ester derivative thereof” (priority 2011, dated 2015)
Where two headings read alike, the source gives them in different places.

Experiments:
[1] = system: 50-day-old healthy three-way cross pigs; experiment: Growth promoting effect of p-thymol and salt or ester derivatives on 50-day-old pigs; conditions: 100 ppm in feed, 30 days; for Total Feed Consumption / Total Weight Gain: 20 per group; for Relative Weight Gain Rate: control = 100
[2] = system: three-way cross weaned pigs; experiment: Growth promoting effect test on weaned pigs; type: in vivo, pig; conditions: 100 ppm in feed, 30 days
[3] = system: Lingnan yellow big chicken; experiment: Comparison of chicken growth promoting effects of p-thymol, thymol and carvacrol; type: in vivo; conditions: 100 ppm in feed, 1 to 21-day-old chickens
[4] = Volatility comparison under reduced-pressure drying; conditions: 1 hour; for weight remained after reduced-pressure drying: initial weight 10.0 g
[5] = system: Chemy Valley ducks; experiment: Growth promoting effect test on ducks; type: in vivo, duck; conditions: 100 ppm in feed, 1 to 46-day-old ducks
[6] = Changes in chicken complete formula feed during preservation (gas chromatography); conditions: placed for 2 months
[7] = system: Lingnan yellow big chicken; conditions: 1 to 21-day-old chickens; for Total Feed Consumption / Total Weight Gain: 50 per group; for Relative Weight Gain Rate: control = 100

Cc1cc(O)ccc1C(C)C [p-thymol, 3-methyl-4-isopropyl-phenol]
Feed Conversion Rate [1]: 2.029 | Survival Rate [1]: 100% | Total Feed Consumption [1]: 693.9 kg | Total Weight Gain [1]: 342.0 kg | Relative Weight Gain Rate [1]: 109.2% | Feed Conversion Rate [2]: 2.288 | feed conversion rate reduced compared with the control group [2]: 0.133 | relative weight gain rate improved compared with the control group [2]: 7.17% | Total Feed Consumption ([2]; 30 per group): 800.2 kg | Total Weight Gain ([2]; 30 per group): 349.8 kg | Relative Weight Gain Rate ([2]; control = 100): 107.17% | Average Weight Gain [3]: 344.6 g | Feed Conversion Rate [3]: 1.716 | Survival Rate [3]: 100% | feed conversion rate reduced compared with the control group [3]: 0.066 | relative weight gain rate improved compared with the control group [3]: 6.82% | Total Feed Consumption ([3]; 50 per group): 29.57 kg | Total Weight Gain ([3]; 50 per group): 17.23 kg | Relative Weight Gain Rate ([3]; control = 100): 106.82% | weight remained after reduced-pressure drying ([4]; 50° C.): 9.84 g | weight remained after reduced-pressure drying ([4]; 70° C.): 8.86 g | weight remained after reduced-pressure drying ([4]; 90° C.): 6.34 g | volatilized part ([4]; reduced-pressure drying 70° C.): 11.4% | volatilized part ([4]; reduced-pressure drying 90° C.): 36.6% | Feed Conversion Rate [5]: 2.676 | Survival Rate [5]: 100% | feed conversion rate reduced compared with the control group [5]: 0.112 | relative weight gain rate improved compared with the control group [5]: 6.65% | Total Feed Consumption ([5]; 100 per group): 943.6 kg | Total Weight Gain ([5]; 100 per group): 352.6 kg | Relative Weight Gain Rate ([5]; control = 100): 106.65% | loss in complete formula feed [6]: less than 5% | survival rate of each test group ([7]; 5-500 ppm in feed): 100% | Average Weight Gain ([7]; 5 ppm in feed): 330.4 g | Feed Conversion Rate ([7]; 5 ppm in feed): 1.776 | Survival Rate ([7]; 5 ppm in feed): 100% | Total Feed Consumption ([7]; 5 ppm in feed): 29.33 kg | Total Weight Gain ([7]; 5 ppm in feed): 16.52 kg | Relative Weight Gain Rate ([7]; 5 ppm in feed): 101.32% | Average Weight Gain ([7]; 10 ppm in feed): 338.3 g | Feed Conversion Rate ([7]; 10 ppm in feed): 1.734 | Survival Rate ([7]; 10 ppm in feed): 100% | Total Feed Consumption ([7]; 10 ppm in feed): 29.34 kg | Total Weight Gain ([7]; 10 ppm in feed): 16.92 kg | Relative Weight Gain Rate ([7]; 10 ppm in feed): 103.74% | Average Weight Gain ([7]; 20 ppm in feed): 341.3 g | Feed Conversion Rate ([7]; 20 ppm in feed): 1.718 | Survival Rate ([7]; 20 ppm in feed): 100% | Total Feed Consumption ([7]; 20 ppm in feed): 29.33 kg | Total Weight Gain ([7]; 20 ppm in feed): 17.07 kg | Relative Weight Gain Rate ([7]; 20 ppm in feed): 104.66% | Average Weight Gain ([7]; 50 ppm in feed): 343.5 g | Feed Conversion Rate ([7]; 50 ppm in feed): 1.705 | Survival Rate ([7]; 50 ppm in feed): 100% | Total Feed Consumption ([7]; 50 ppm in feed): 29.29 kg | Total Weight Gain ([7]; 50 ppm in feed): 17.18 kg | Relative Weight Gain Rate ([7]; 50 ppm in feed): 105.33% | Average Weight Gain ([7]; 100 ppm in feed): 348.3 g | Feed Conversion Rate ([7]; 100 ppm in feed): 1.681 | Survival Rate ([7]; 100 ppm in feed): 100% | Total Feed Consumption ([7]; 100 ppm in feed): 29.28 kg | Total Weight Gain ([7]; 100 ppm in feed): 17.42 kg | Relative Weight Gain Rate ([7]; 100 ppm in feed): 106.81% | Average Weight Gain ([7]; 200 ppm in feed): 347.8 g | Feed Conversion Rate ([7]; 200 ppm in feed): 1.686 | Survival Rate ([7]; 200 ppm in feed): 100% | Total Feed Consumption ([7]; 200 ppm in feed): 29.32 kg | Total Weight Gain ([7]; 200 ppm in feed): 17.39 kg | Relative Weight Gain Rate ([7]; 200 ppm in feed): 106.65% | Average Weight Gain ([7]; 500 ppm in feed): 350.2 g | Feed Conversion Rate ([7]; 500 ppm in feed): 1.671 | Survival Rate ([7]; 500 ppm in feed): 100% | Total Feed Consumption ([7]; 500 ppm in feed): 29.26 kg | Total Weight Gain ([7]; 500 ppm in feed): 17.51 kg | Relative Weight Gain Rate ([7]; 500 ppm in feed): 107.39% | weight gain improved compared with the control group ([7]; over doses 5-500 ppm in feed): 1.32-7.39%

Cc1cc([O-])ccc1C(C)C.[Na+] [p-thymol sodium]
Feed Conversion Rate [1]: 2.025 | Survival Rate [1]: 100% | average weight gain improved compared with the control group [1]: 9.4% | feed conversation rate reduced compared with the control group [1]: 0.199 | Total Feed Consumption [1]: 693.8 kg | Total Weight Gain [1]: 342.6 kg | Relative Weight Gain Rate [1]: 109.4%

Cc1cc(O)ccc1C(C)C.N [p-thymol ammonium]
Feed Conversion Rate [1]: 2.028 | Survival Rate [1]: 100% | average weight gain improved compared with the control group [1]: 8.9% | feed conversation rate reduced compared with the control group [1]: 0.197 | Total Feed Consumption [1]: 691.6 kg | Total Weight Gain [1]: 341.0 kg | Relative Weight Gain Rate [1]: 108.9%

Cc1ccc(C(C)C)c(O)c1 [thymol, 5-methyl-2-isopropyl-phenol]
Feed Conversion Rate [1]: 2.098 | Survival Rate [1]: 100% | Total Feed Consumption [1]: 680.6 kg | Total Weight Gain [1]: 324.4 kg
